Experimental data taken from PubChem BioAssay AID1508642 (National Center for Advancing Translational Sciences (NCATS), 2021).
The whole screen tested about 43,000 compounds, of which about 200 (0.47%) were called active. The shares of active, inactive and inconclusive entries below differ from those in the screen. Calls follow the shape of the dose curve; as a rule, active = well fitted cell-killing curve with a large enough effect; inconclusive = small, poorly fitted or top-dose-only effect, or effect the other way; inactive = flat fitted curve, though single readings scatter. A potency beside an inconclusive call is a rough fit, not a confirmed value.

Experiment: Cell viability qHTS assay in S16 Pmp22-F2sN cells; also: nearly all actives have a fitted effect of over 65% in size
Details: S16 Pmp22-F2sN Schwann cells (luciferase reporters placed in the Pmp22 gene) viability, CellTiter-Glo, 24 h; series mostly up to 57.5 µM
Description: Assay Provider: Jim Inglese Ph.D. National Center for Advancing Translational Science, National Institutes of Health, Rockville, MD CMT is a heterogeneous group of neurological disorders that affect approximately 1 in 2,500 people. In particular, the most common form of CMT, CMT1A is genetically linked to the duplication of the PMP22 gene which leads to Schwann cell overexpression, thus manifesting itself as a typical case of dose-sensitive diseases. To identify small molecule compounds that can mediate the expression of PMP22 we developed a phenotypic assay screening strategy by utilizing genome editing techniques to construct Schwann cell lines containing novel reporter technology to monitor the transcriptional or translational regulation of PMP22. For high sensitivity we use a bioluminescent reporter system embedded in the 3' UTR of the PMP22 gene (S16(c9) Pmp22-F2sN) to identify compounds that inhibit gene expression. […] We can further discriminate the effect of all transcriptionally active molecules on PMP22 translation or stability with an assay that incorporates a short NLuc peptide (HiBiT) at the C-terminus of expressed PMP22 (S16(f8) PMP22-HiBiT) allowing alpha complementation and luminescence detection of membrane-associated PMP22 protein. These assays were screened against the NCATS Sytravon Library Collection. Miniaturization of these assays to 1536-well plate format for quantitative high throughput screening (qHTS) yielded rich data sets immediately from the qHTS assay (S16(c9) Pmp22-F2sN), when compared with data from a cell viability assay (Cell TiterGlo) to identify compounds that decreased the output signals through cellular toxicity to streamline the selection process of actives for subsequent characterization using the HiBiT assay (S16(f8) PMP22-HiBiT).
Cell viability assay in S16 Pmp22-F2sN cells PROTOCOL TABLE (format as described by Inglese J, Shamu CE and Guy RK. 2007) SEQUENCE No. (e.g., 1, 2, 3, etc.); […] (e.g., Cells, Incubation, Reagent, etc.); VALUE and DESCRIPTION. 1. Cells. Add 500-1,000 cells in 4 uL in growth media (DMEM High Glucose, No Phenol Red media + 10% heat-inactivated FBS + 1% Pen/Strep supplemented media) per well into Greiner 1536-well white/solid bottom high base, TC-treated plates. 2. Compounds. Library compounds and controls added at 23nL per well, transferred by Pin Tool. 3. Incubation. Incubate plates at 37C, 5% CO2, 95% RH for 24 h. 4. Reagent. Add 3uL CellTiter-Glo per well of Greiner 1536-well plates. 5. Incubation. Incubate plates at room temperature for 15 min., protect from light. 6. Detector. FLuc luminescence measured using CCD-based camera (Viewlux). NOTES (numbers refer to Sequence numbers above; values are from representative experiments) 6. Luminescence Read: Clear filter; Exposure = 1 sec, Gain = High, Speed = Slow, Binning = 2X REFERENCES: 1. Inglese J, Shamu CE and Guy RK, Reporting data from high throughput screening of small molecule libraries, Nature Chemical Biology, 2007, 3(8): 438-441. doi.org/10.1038/nchembio0807-438 2. Yasgar A, Shinn P, Jadhav A, Auld DS, Michael S, Zheng W, Austin CP, Inglese J and Simeonov A, Compound Management for Quantitative High-Throughput Screening. J. Assoc. Lab. Auto., 2008, 13: 79-89. doi: 10.1016/j.jala.2007.12.004
Potency is read from the fitted curve at half-maximal effect; tags tell the direction and shape of the fitted curve.

SMILES | Potency
CC1CCN(C(=O)c2ccc(NC(=O)c3nsc4ccccc34)cc2)CC1 | inactive
COc1ccc(N2C(=O)CCSC23C(=O)N(Cc2ccc(F)cc2)c2ccccc23)cc1Cl (stereo not given) | inconclusive: 39.8 µM [rising, single point]
Cc1ccc(NC(=O)CN2C(=O)C(C)(C)c3cc(S(=O)(=O)N4CCCCC4)ccc32)c(Br)c1 | inconclusive: 39.8 µM [cytotoxic, single point]
O=C(CC1N=C2c3ccccc3N=C(SCc3ccccc3Cl)N2C1=O)NC1CCCCC1 (stereo not given) | inconclusive: 39.8 µM [cytotoxic, single point]
CCN1CCN(c2cc(C)c3cc(NC(=O)c4cc(OC)cc(OC)c4)ccc3n2)CC1 | inconclusive: 39.8 µM [cytotoxic, single point]
COc1ccc(-c2cc(C(F)(F)F)nc(SCC(=O)NCc3ccc(F)cc3)n2)cc1 | inconclusive: 14.1 µM [rising, partial curve]
CC(C)c1ccc(Nc2nc3ccc(C(=O)c4ccccc4)cc3n3cnnc23)cc1 | inconclusive: 39.8 µM [cytotoxic, partial curve, poor fit]
COc1ccc(NC(=O)N2CCc3c(sc4c3CCCC4)C2c2ccc(F)cc2)cc1 (stereo not given) | inconclusive: 22.4 µM [cytotoxic, single point]
Cn1cc(C(=O)NCc2ccc(F)cc2)c(=O)c2cc(S(=O)(=O)N3CCCCC3)ccc21 | inconclusive: 5.01 µM [cytotoxic, partial curve, poor fit]
Cc1ccc(/C=C(\C#N)c2nc(-c3cc4c(ccc5ccccc54)oc3=O)cs2)cc1 | inactive
CC(C)CN(c1ccccc1)S(=O)(=O)c1nnc(NC(=O)c2ccco2)s1 | inactive
CCOc1ccc(CCNC(=O)C2CCN(C(=O)N3CC(CC)Oc4ccc(C)cc43)CC2)cc1 (stereo not given) | inconclusive: 31.6 µM [cytotoxic, partial curve, poor fit]
COc1ccccc1CNC(=O)Cn1c(=O)oc2cc(S(=O)(=O)N3CCC(C)CC3)ccc21 | inconclusive: 31.6 µM [cytotoxic, single point]
CC(CNC(=O)Cn1ccc2cc(S(=O)(=O)N3CCCCC3)ccc21)c1ccccc1 (stereo not given) | inconclusive: 39.8 µM [cytotoxic, single point]
CCCCOc1ccc(C2c3c(-c4ccccc4O)n[nH]c3C(=O)N2Cc2ccncc2)cc1OC (stereo not given) | inconclusive: 28.2 µM [cytotoxic, single point]
CCCSCCCNC(=O)C1CCN(C(=O)c2cc3sccc3n2C)CC1 | inactive
COc1c(Cl)cc(Cl)cc1/C=C(\C#N)c1nc2ccccc2[nH]1 | inconclusive: 2.51 µM [rising, full curve, poor fit]
COc1ccc(C(=O)Nc2ccc(-c3cc4ccccc4oc3=O)c(C)c2)cc1Br | inconclusive: 17.8 µM [cytotoxic, partial curve, poor fit]
Cc1ccc(Cn2c(=O)n(Cc3nc(-c4ccccc4)no3)c(=O)c3cc4c(cc32)OCO4)cc1 | inactive
CCOC(=O)C1CCN(c2nc(-c3ccc(Br)cc3)nc3ccccc23)CC1 | inconclusive: 28.2 µM [cytotoxic, single point]
Cc1c(C(=O)N(C)C)sc2c1c(=O)n(-c1ccc(F)cc1)c(=O)n2Cc1cc(=O)n2ccccc2n1 | inactive
CCCCCn1c(NCc2ccccc2OC)nc2ccccc21 | inconclusive: 31.6 µM [cytotoxic, single point]
CCCS(=O)(=O)c1ncc(Cl)c(C(=O)Nc2c(C(=O)c3ccccc3)oc3ccccc23)n1 | inactive
CC(=O)N1CCCc2ccc(NS(=O)(=O)c3ccc(C)c(C)c3)cc21 | inconclusive: 1 µM [rising, partial curve, poor fit]
CCOc1ccc(CCNC(=O)CCCc2nnc3n(CC(C)C)c(=O)c4sccc4n23)cc1 | inactive
CCc1ccc(S(=O)(=O)c2nnn3c2nc(NCCc2ccccc2)c2sccc23)cc1 | inconclusive: 25.1 µM [cytotoxic, partial curve, poor fit]
Cn1c(=O)c2c(nc(SCC(=O)Nc3ccc(OC(F)(F)F)cc3)n2Cc2cccc(C(F)(F)F)c2)n(C)c1=O | inconclusive: 31.6 µM [cytotoxic, single point]
COc1cc(CNC(=O)c2cc(-c3ccccc3)n[nH]2)cc(OC)c1OC | inconclusive: 15.8 µM [cytotoxic, partial curve, poor fit]
CCc1nn(CC(=O)NCCc2ccc(OC)cc2OC)c(=O)c2cc3sccc3n12 | inconclusive: 1.58 µM [rising, partial curve, poor fit]
COc1cccc(CNC(=O)Cn2cc3c(n2)-c2c(oc(C(=O)N4CCCC4)c2C)CC3)c1OC | inconclusive: 39.8 µM [cytotoxic, partial curve, poor fit]
